Source: publication PMC3521654, “The Nuclear Chaperone Nucleophosmin Escorts an Epstein-Barr Virus Nuclear Antigen to Establish Transcriptional Cascades for Latent Infection in Human B Cells” (PLoS Pathogens, 2012)

Legend:
GST-E2 300–360 = molecular target: T1, GST-E2 300–360 (Epstein-Barr virus, UniProt P12978 300-360); experiment: pull-down; details: one partner purified
T1 construct: source: E. coli BL21 (DE3) pLys, purified (GST-sepharose)
T1 sequence: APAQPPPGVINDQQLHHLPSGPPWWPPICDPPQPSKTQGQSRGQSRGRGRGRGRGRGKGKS

[1] = molecular target: T2, EBNA2 from the transfected expression vector (pSG5-EBNA2, E2) (Epstein-Barr virus, UniProt P12978 1-487); experiment: cell-based or functional assay
T2 sequence (looked up): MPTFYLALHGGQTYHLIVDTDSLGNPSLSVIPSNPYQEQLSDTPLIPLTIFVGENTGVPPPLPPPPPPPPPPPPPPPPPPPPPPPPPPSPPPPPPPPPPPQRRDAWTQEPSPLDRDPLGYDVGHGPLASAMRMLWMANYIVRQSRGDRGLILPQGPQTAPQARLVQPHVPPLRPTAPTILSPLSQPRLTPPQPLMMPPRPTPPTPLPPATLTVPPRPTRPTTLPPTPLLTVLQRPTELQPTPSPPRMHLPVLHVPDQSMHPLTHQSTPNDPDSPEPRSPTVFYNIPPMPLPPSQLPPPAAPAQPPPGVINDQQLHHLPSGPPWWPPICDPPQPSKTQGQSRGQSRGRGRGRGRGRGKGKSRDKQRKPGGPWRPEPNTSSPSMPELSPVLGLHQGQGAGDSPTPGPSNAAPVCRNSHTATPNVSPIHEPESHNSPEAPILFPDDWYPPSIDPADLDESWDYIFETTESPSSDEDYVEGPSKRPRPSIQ

B1: flag-tagged NPM1 truncated deletion mutant C1 ([…]) (domain or fragment)
chain: not shown
notes: source: BJAB, transfected, in lysate
B1 was tested, and the “percent of input pulled down” value (GST-E2 300–360) was roughly 2% and the “co-activation of EBNA2-dependent LMP1-Luc reporter activity in BJAB cells” value [1] was 2.5 fold.
